Experimental findings from article PMC4336329 (PLoS ONE, 2015) are described below.

The whole screen tested about 310,000 compounds, of which about 2,200 (0.71%) showed an effect of 50% or more. The effect is printed as a negative number. The list shows a part of the results.

Chain of human ether-à-go-go-related gene (hERG) potassium channel (Q12809 whole entry, looked up): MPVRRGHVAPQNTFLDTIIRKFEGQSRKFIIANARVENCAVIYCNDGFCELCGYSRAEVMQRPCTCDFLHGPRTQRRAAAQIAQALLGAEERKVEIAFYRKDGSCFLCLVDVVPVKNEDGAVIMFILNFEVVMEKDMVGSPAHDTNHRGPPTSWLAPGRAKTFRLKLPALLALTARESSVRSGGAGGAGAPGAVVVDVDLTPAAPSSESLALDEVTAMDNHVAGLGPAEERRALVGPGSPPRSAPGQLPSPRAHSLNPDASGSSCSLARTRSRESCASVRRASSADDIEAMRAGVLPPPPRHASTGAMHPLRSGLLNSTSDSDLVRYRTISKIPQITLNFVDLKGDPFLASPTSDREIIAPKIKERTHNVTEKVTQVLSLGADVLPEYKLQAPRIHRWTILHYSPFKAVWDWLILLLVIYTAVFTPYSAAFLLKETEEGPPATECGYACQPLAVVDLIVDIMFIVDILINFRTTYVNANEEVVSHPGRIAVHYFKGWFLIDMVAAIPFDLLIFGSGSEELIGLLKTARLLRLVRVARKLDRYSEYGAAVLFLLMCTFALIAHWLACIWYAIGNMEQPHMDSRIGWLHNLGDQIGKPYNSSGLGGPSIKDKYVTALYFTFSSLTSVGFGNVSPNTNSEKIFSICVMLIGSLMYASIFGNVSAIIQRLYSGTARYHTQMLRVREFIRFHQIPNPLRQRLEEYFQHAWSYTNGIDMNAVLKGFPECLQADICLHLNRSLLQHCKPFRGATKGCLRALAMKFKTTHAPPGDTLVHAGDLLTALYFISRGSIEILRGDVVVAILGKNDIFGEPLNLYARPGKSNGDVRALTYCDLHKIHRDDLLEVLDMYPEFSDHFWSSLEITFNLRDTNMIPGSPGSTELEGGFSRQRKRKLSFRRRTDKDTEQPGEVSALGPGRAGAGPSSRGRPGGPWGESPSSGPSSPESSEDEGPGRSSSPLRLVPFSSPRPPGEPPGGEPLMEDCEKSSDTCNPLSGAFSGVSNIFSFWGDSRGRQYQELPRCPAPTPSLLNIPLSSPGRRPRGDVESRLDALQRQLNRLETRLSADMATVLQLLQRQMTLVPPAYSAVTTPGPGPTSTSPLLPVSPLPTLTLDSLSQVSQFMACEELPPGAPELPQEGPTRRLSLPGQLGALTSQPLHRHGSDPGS

This assay addresses human ether-à-go-go-related gene (hERG) potassium channel (human, UniProt Q12809). The assay can be described thus: primary screen, population patch clamp on CHO cells stably expressing hERG.
In the case of `CC1CCN(C(=O)c2ccc(S(=O)(=O)Cc3ccccc3F)c([N+](=O)[O-])c2)CC1`, the “hERG current change (%, negative = inhibition) at 1uM” value was 5.35%.

As for `O=C1OC(Nc2ccc(F)c([N+](=O)[O-])c2)c2ccccc21` (centres unmarked), the “hERG current change (%, negative = inhibition) at 1uM” value came to 7.65%.

As for `COc1cccc(/C=C2\SC(=S)N(C(C)C(=O)NC3C=CS(=O)(=O)C3)C2=O)c1` (centres unmarked), the “hERG current change (%, negative = inhibition) at 1uM” value amounted to 11.2%.

Turning to `C/C(=N\NC(=O)Cc1ccc(Cl)cc1)c1cccnc1`, the “hERG current change (%, negative = inhibition) at 1uM” value came to 13.4%.

Regarding `CCN(CC)CCCNC(=O)N[C@@H](Cc1ccccc1)C(=O)O`, the “hERG current change (%, negative = inhibition) at 1uM” value was determined as 6.72%.

Regarding `C[C@@]12C(=O)Nc3ccc(Br)cc3C(=O)N1[C@H]1c3cc(Cl)ccc3OC[C@@H]1[C@@H]2c1ccccc1`, the “hERG current change (%, negative = inhibition) at 1uM” value came out at 16.5%.

As for `Cc1ccc(SCc2[nH]nc3c2C(C(C)C)C(C#N)=C(N)O3)cc1` (centres unmarked), the “hERG current change (%, negative = inhibition) at 1uM” value worked out at 15.8%.

On to `COC(=O)c1ccc(C2C(C(C)=O)=C(C)Nc3ncnn32)cc1` (centres unmarked), for which the “hERG current change (%, negative = inhibition) at 1uM” value came out at 10.3%.

As to `CN(CC(=O)Nc1ccc(F)cc1)C(=O)C1CCN(C(=O)Nc2ccccc2)CC1`, the “hERG current change (%, negative = inhibition) at 1uM” value turned out to be 3.54%.

For `Cc1ccccc1C(C(=O)NCc1ccccc1)N(Cc1ccco1)C(=O)c1ccccn1` (centres unmarked), the “hERG current change (%, negative = inhibition) at 1uM” value is given as 10.8%.

Consider `C1=CC2c3ccccc3NC(c3ccncc3)C2C1` (centres unmarked), for which the “hERG current change (%, negative = inhibition) at 1uM” value was 5.2%.

For the molecule `CC(C)N(Cc1ccccc1)C(=O)CN1C(=O)COc2ccc(S(=O)(=O)N3CCCCCC3)cc21`, the “hERG current change (%, negative = inhibition) at 1uM” value worked out at 13.7%.

As for `Cn1c(=O)c(-c2ccccc2)nn2c3ccccc3nc12`, the “hERG current change (%, negative = inhibition) at 1uM” value is 10%.

Turning to `O=C(CCCN1C(=O)/C(=C/c2ccc3c(c2)OCO3)SC1=S)Nc1cccc(C(=O)O)c1`, the “hERG current change (%, negative = inhibition) at 1uM” value amounted to 9.71%.

On to `COc1ccc(CCNC(=O)CCCCCN2C(=O)c3ccccc3C2=O)cc1OC`, for which the “hERG current change (%, negative = inhibition) at 1uM” value is reported as -1.78%.

Regarding `CCOC(=O)O[C@]1(C(=O)COC(=O)CC)CC[C@H]2[C@@H]3CCC4=CC(=O)C=C[C@]4(C)[C@H]3[C@@H](O)C[C@@]21C`, the “hERG current change (%, negative = inhibition) at 1uM” value was 8.4%.

Consider `COCCNCc1nc2sc(C)c(-c3ccccc3)c2c(=O)[nH]1.O=C(O)C(=O)O`, for which the “hERG current change (%, negative = inhibition) at 1uM” value came to 15.1%.

As for `O=C(NCCCN1CCCC1=O)c1ccc(S(=O)(=O)Nc2ccccc2F)cc1`, the “hERG current change (%, negative = inhibition) at 1uM” value is listed as -0.0222%.

Regarding `CCC(=O)Nc1ccc(-c2nnc(SCC(=O)NCC3CCCO3)n2C)cc1` (centres unmarked), the “hERG current change (%, negative = inhibition) at 1uM” value amounted to 14.4%.

Take `N#CCCSCc1ccc(C(=O)O)o1`: the “hERG current change (%, negative = inhibition) at 1uM” value was determined as 14.5%.

Regarding `CCn1cc(C(=O)O)c(=O)c2cc(F)c(N3CCN(C(=S)NC(=O)c4cccc(F)c4)CC3)cc21`, the “hERG current change (%, negative = inhibition) at 1uM” value came out at 7.8%.

As to `Cc1ccc2[nH]c3c(=O)n(CCC4=CCCCC4)cnc3c2c1`, the “hERG current change (%, negative = inhibition) at 1uM” value came to 11%.

In the case of `CCC(C)NC(=O)CCS(=O)(=O)c1ccc2c(c1)n(C)c(=O)c(=O)n2C` (centres unmarked), the “hERG current change (%, negative = inhibition) at 1uM” value is reported as 6.48%.

Turning to `Cc1ccc(OCC(=O)Nc2ccc(N3CCN(C(=O)c4ccco4)CC3)cc2)cc1`, the “hERG current change (%, negative = inhibition) at 1uM” value is listed as -0.667%.

With `Cc1ccc(S(=O)(=O)NCc2ccc(C(=O)NC3CC3)cc2)cc1`, the “hERG current change (%, negative = inhibition) at 1uM” value was determined as 3.97%.

With `COc1cccc(NC(=S)NCCN2CCOCC2)c1`, the “hERG current change (%, negative = inhibition) at 1uM” value was determined as 10.3%.

Turning to `Cc1[nH]nc2nc(SCC(=O)NC3CCCCC3)n(-c3ccc(Br)cc3)c(=N)c12`, the “hERG current change (%, negative = inhibition) at 1uM” value came out at 13.1%.

As to `NC(=O)c1cccc2c(=O)oc3ccccc3c12`, the “hERG current change (%, negative = inhibition) at 1uM” value stood at 9.01%.

For `NC(=O)C1(N2CCCCC2)CCN(C(=S)Nc2cc(F)cc(F)c2)CC1`, the “hERG current change (%, negative = inhibition) at 1uM” value is 4.85%.

As to `Cc1ccc2nc3sc(C(=O)N4CCCc5ccccc54)c(N)c3cc2c1`, the “hERG current change (%, negative = inhibition) at 1uM” value was 8.43%.

Regarding `CN1CC(C(=O)c2ccc(Cl)cc2)C(c2ccccc2)C1` (centres unmarked), the “hERG current change (%, negative = inhibition) at 1uM” value is on record as 6.78%.

`C/C(CC(=O)Nc1ccc(N(C)C)cc1)=N\NC(=O)c1ccc([N+](=O)[O-])cc1`: the “hERG current change (%, negative = inhibition) at 1uM” value came out at 1.72%.

Take `Cn1ccsc1=NC(=O)c1cccc(C#N)c1`: the “hERG current change (%, negative = inhibition) at 1uM” value amounted to 13.5%.

With `CCNC(=S)SCCOc1ccccc1C`, the “hERG current change (%, negative = inhibition) at 1uM” value amounted to 14.5%.

As for `CCOc1cc(NC(=S)NCC2CCCO2)c(OCC)cc1NC(=O)c1ccc(OC)cc1` (centres unmarked), the “hERG current change (%, negative = inhibition) at 1uM” value is recorded as 4.07%.

For `CO/N=C/c1c(-c2ccccc2)nn(C)c1Cl`, the “hERG current change (%, negative = inhibition) at 1uM” value worked out at 15.9%.

On to `O=C(CCn1c(=O)oc2ccccc21)NCc1ccco1`, for which the “hERG current change (%, negative = inhibition) at 1uM” value amounted to 13%.

As for `COc1ccc(CCN2C(=NC(=O)CC(C)C)SC3CS(=O)(=O)CC32)cc1OC` (centres unmarked), the “hERG current change (%, negative = inhibition) at 1uM” value was 12.7%.

Regarding `NS(=O)(=O)c1ccc(N=C2C(=O)Nc3ccccc32)cc1`, the “hERG current change (%, negative = inhibition) at 1uM” value is reported as 17.4%.

On to `CC1=NN=C(c2ccc(N)cc2)c2cc3c(cc2C1)OCO3.Cl`, for which the “hERG current change (%, negative = inhibition) at 1uM” value is on record as 14.6%.

Consider `CC(C)C(=O)O/N=C(\N)c1ccc(Oc2ccc(Cl)cc2)c([N+](=O)[O-])c1`, for which the “hERG current change (%, negative = inhibition) at 1uM” value amounted to 10.5%.

For the molecule `O=C(CSc1nnc2c(n1)[nH]c1ccccc12)NCc1ccccc1F`, the “hERG current change (%, negative = inhibition) at 1uM” value stood at 4.41%.

For the molecule `CCOc1ccc(N2C(=O)CNC2=S)cc1`, the “hERG current change (%, negative = inhibition) at 1uM” value came out at 2.76%.

On to `Cc1ccc(C(=O)NCCSC(C)(C)C)cc1`, for which the “hERG current change (%, negative = inhibition) at 1uM” value was 2.44%.

For `COC(=O)c1onc(-c2c(OC)cc(OC)cc2OC)c1C(=O)OC`, the “hERG current change (%, negative = inhibition) at 1uM” value was determined as 8.04%.

As to `CC1CCCC(C)N1/N=C/c1ccccc1C(=O)O` (centres unmarked), the “hERG current change (%, negative = inhibition) at 1uM” value worked out at 6.19%.

Regarding `CSc1nc2ccccc2c(=O)n1Cc1ccc(F)cc1`, the “hERG current change (%, negative = inhibition) at 1uM” value turned out to be 6.61%.

Take `O=C(Nc1nc(-c2cccc(Br)c2)cs1)Oc1ccccc1`: the “hERG current change (%, negative = inhibition) at 1uM” value is 11.9%.

Turning to `Cc1ccc(C)c(NC(=O)c2cnc3n(c2=O)CCS3)c1`, the “hERG current change (%, negative = inhibition) at 1uM” value was -14.4%.

`O=C(Nc1ccc(C(=O)O)cc1)Nc1ccc([N+](=O)[O-])cc1`: the “hERG current change (%, negative = inhibition) at 1uM” value was determined as 16.7%.

With `CC(C)c1ccc(NC(=O)CSc2nc(=O)n(CCCN3CCOCC3)c3c2CCCC3)cc1`, the “hERG current change (%, negative = inhibition) at 1uM” value is reported as -2.46%.

As to `Cc1ccc(C(=O)NC(Cc2c[nH]c3ccccc23)C(=O)O)cc1` (centres unmarked), the “hERG current change (%, negative = inhibition) at 1uM” value came to 2.23%.

On to `CCS(=O)(=O)Nc1cc(C(=O)O)ccc1C`, for which the “hERG current change (%, negative = inhibition) at 1uM” value was found to be 13.3%.

Take `CCCn1c(SC(C)C(=O)NCC2CCCO2)nc2sc3c(c2c1=O)CCC3` (centres unmarked): the “hERG current change (%, negative = inhibition) at 1uM” value is reported as 3.03%.

As to `COc1ccc(Cc2nc3ccc(C(=O)N(C)CCO)cc3o2)cc1`, the “hERG current change (%, negative = inhibition) at 1uM” value came out at 3%.

With `O=C(Nc1nccs1)C1CCCN1S(=O)(=O)c1ccc(Cl)cc1` (centres unmarked), the “hERG current change (%, negative = inhibition) at 1uM” value worked out at 17.3%.
